{"source": "PubChem BioAssay AID1460", "about": "(National Center for Advancing Translational Sciences (NCATS), 2008)", "note": "Values joined by “and” are separate entries in the source; they are usually repeats but may differ in a detail not shown here. Equal entries are not always repeated. The campaign covered roughly 270,000 compounds. About 5,800 (2.1%) were called active. The shares of active, inactive and inconclusive entries below differ from those in the screen. Calls follow the shape of the dose curve; as a rule, active = well fitted inhibition curve with a large enough effect; inconclusive = small, poorly fitted or top-dose-only effect; inactive = flat fitted curve, though single readings scatter. Potencies beside an inconclusive call are fits to weak or partial responses and may not hold up. % is scaled to controls: 0 for no effect and ±100 for the full control effect; potency is read from the fitted curve at half-maximal effect; tags tell the direction and shape of the fitted curve.", "data": [{"molecular_target": "Microtubule-associated protein tau (Homo sapiens) (UniProt P10636)", "sequence (P10636 whole entry, looked up, the tested form may be a part)": "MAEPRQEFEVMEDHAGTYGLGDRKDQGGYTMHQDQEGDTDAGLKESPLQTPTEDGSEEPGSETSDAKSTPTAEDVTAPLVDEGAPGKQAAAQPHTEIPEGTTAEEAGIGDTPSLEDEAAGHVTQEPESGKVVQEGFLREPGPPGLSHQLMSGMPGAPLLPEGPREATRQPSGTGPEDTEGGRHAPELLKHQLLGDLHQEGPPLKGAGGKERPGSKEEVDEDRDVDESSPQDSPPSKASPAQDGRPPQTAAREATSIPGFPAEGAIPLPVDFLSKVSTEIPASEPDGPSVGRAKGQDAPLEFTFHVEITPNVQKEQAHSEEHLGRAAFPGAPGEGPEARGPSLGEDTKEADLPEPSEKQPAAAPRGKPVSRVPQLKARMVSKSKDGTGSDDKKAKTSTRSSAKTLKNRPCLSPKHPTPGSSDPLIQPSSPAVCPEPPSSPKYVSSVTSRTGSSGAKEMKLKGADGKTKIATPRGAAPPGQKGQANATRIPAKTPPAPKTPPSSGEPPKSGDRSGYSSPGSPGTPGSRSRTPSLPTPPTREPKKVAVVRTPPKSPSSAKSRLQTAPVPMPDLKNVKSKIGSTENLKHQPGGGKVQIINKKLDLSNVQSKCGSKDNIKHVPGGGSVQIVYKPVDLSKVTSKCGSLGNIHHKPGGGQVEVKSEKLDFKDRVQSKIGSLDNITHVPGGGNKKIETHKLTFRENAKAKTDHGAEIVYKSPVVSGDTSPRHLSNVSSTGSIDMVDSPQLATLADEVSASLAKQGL", "assay": "qHTS for Inhibitors of Tau Fibril Formation, Thioflavin T Binding; also: nearly all actives have a fitted effect of over 55% in size", "conditions": "recombinant tau K18 P301L (four-repeat tau fragment), heparin-induced fibrillization, ThT fluorescence; series mostly up to 57.4 µM; activity, negative = inhibition: at the top concentration", "outline": "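K18 P301L tau (15 uM + 0.24 uM Alexa 594-tagged), heparin 20 uM, NaOAc pH 7, 6 h 37 C; ThT 30 uM, 1 h RT, ex 450/em 510 nm.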", "values": [{"smiles": "COc1ccc(-c2[nH]nc3nc(-c4cc(Br)ccc4OC)cc(C(=O)O)c23)cc1", "Potency": "inconclusive: 22.4 µM [inhibitor, partial curve, poor fit]"}, {"smiles": "Cc1c(C(=O)OC2CCCCC2)[nH]c2c1C(=O)CC(c1ccc(F)cc1)C2", "note": "(stereo not drawn)", "activity, negative = inhibition": "inactive: 0.148%"}, {"smiles": "Cc1cc(NCCCn2ccnc2)n2ncc(-c3ccccc3)c2n1", "Potency": "inconclusive: 28.2 µM [inhibitor, partial curve, poor fit]"}, {"smiles": "COc1cccc(-c2cc(C(F)(F)F)nc(NCCc3ccc(OC)c(OC)c3)n2)c1", "Potency": "inconclusive: 28.2 µM [inhibitor, single point]"}, {"smiles": "CCCCOc1ccc(C(C)NC(=O)CN2C(=O)CSc3ccc(S(=O)(=O)N4CCOCC4)cc32)cc1", "note": "(stereo not drawn)", "activity, negative = inhibition": "inactive: -1.11%"}, {"smiles": "COc1ccc(C(=O)NC(=S)Nc2cc(C)ccn2)cc1[N+](=O)[O-]", "Potency": "inconclusive: 15.8 µM [inhibitor, partial curve, poor fit]"}, {"smiles": "COC(=O)[C@@]1(Cc2ccc(F)cc2)[C@H]2c3cc(C(=O)N(C)C)n(Cc4ccc(OC(F)(F)F)cc4)c3C[C@H]2CN1C(=O)c1ccccc1", "Potency": "inconclusive: 1 µM [inhibitor, full curve, poor fit] and inconclusive: 35.5 µM [inhibitor, partial curve]"}, {"smiles": "CCOC(=O)N1CCN(C(=O)Nc2cccc(Cl)c2)CC1", "activity, negative = inhibition": "inactive: -0.347%"}, {"smiles": "COc1ccc2cc(C3C(C#N)=C(N)OC(C)=C3C(C)=O)c(Cl)nc2c1", "note": "(stereo not drawn)", "Potency": "inconclusive: 12.6 µM [inhibitor, partial curve, poor fit]"}, {"smiles": "CCOc1cc(N2CCOCC2)c(OCC)cc1NC(=O)c1cc(C)cc(C)c1", "Potency": "inconclusive: 39.8 µM [inhibitor, single point]"}, {"smiles": "O=C(CC(Cc1ccccc1)c1ccco1)NC1CCCCC1", "note": "(stereo not drawn)", "activity, negative = inhibition": "inactive: -12.1%"}, {"smiles": "CCN(CC)S(=O)(=O)c1ccc(NN=c2c(=O)c3ccccc3c2=O)cc1", "Potency": "inconclusive: 35.5 µM [activator, single point]"}, {"smiles": "COc1ccc(CCN2C(=O)N(c3cccc(C)c3)C(=O)C2CC(=O)Nc2ccccc2)cc1OC", "note": "(stereo not drawn)", "activity, negative = inhibition": "inactive: 6.22%"}, {"smiles": "COc1ccccc1CNC(=O)COC(=O)Cn1cnc2ccccc21", "activity, negative = inhibition": "inactive: -2.3%"}, {"smiles": "COc1ccc(/C=N/NC(=O)c2cccnc2)cc1Cn1nc([N+](=O)[O-])c(Br)c1C", "Potency": "inconclusive: 22.4 µM [inhibitor, partial curve, poor fit]"}, {"smiles": "CCCC(c1nnnn1C(C)(C)CC)N(Cc1ccco1)Cc1cc2ccc(OC)cc2[nH]c1=O", "note": "(stereo not drawn)", "Potency": "inconclusive: 35.5 µM [inhibitor, single point]"}, {"smiles": "Oc1ccc(/C=N/Nc2nc(-c3ccc(Cl)cc3)cc(C(F)(F)F)n2)cc1", "Potency": "active: 17.8 µM"}, {"smiles": "Cc1ccc2[nH]c(=O)c(C3C(C#N)=C(N)Oc4c3ccc3cccnc43)cc2c1", "note": "(stereo not drawn)", "Potency": "inconclusive: 31.6 µM [inhibitor, partial curve]"}, {"smiles": "Cc1c(N2C(=O)/C(=C\\c3cccc4ccccc34)SC2=S)c(=O)n(-c2ccccc2)n1C", "Potency": "inconclusive: 14.1 µM [inhibitor, partial curve]"}, {"smiles": "O=C(CNc1cc(S(=O)(=O)N2CCCC2)ccc1OCC(F)(F)F)Nc1cccc(C(F)(F)F)c1", "activity, negative = inhibition": "inactive: 8.17%"}, {"smiles": "CC(=O)c1ccc(Nc2cc(C)nc3nc(C)nn23)cc1", "activity, negative = inhibition": "inactive: -7.45%"}, {"smiles": "Cc1ccc(CNC(=O)Nc2ccccc2)cc1", "activity, negative = inhibition": "inactive: -0.707%"}, {"smiles": "O=S(=O)(c1ccc(F)cc1)N1CCC(Oc2cccc(C(F)(F)F)c2)CC1", "activity, negative = inhibition": "inactive: -1%"}, {"smiles": "Cc1ccc(C(=O)CSc2nc(C(C)C)nc3ccccc23)cc1", "Potency": "inconclusive: 28.2 µM [inhibitor, partial curve]"}, {"smiles": "Cc1cc(C)cc(NC(=O)Nc2ccc(N3CCCCC3)cc2)c1", "Potency": "inconclusive: 14.1 µM [inhibitor, partial curve]"}, {"smiles": "O=C(Nc1sc2c(c1C(=O)NCC1CCCO1)CCCC2)c1cccs1", "note": "(stereo not drawn)", "Potency": "inconclusive: 20 µM [inhibitor, partial curve]"}, {"smiles": "COc1ccc(NC(=O)N2CCn3c2nc2ccccc23)cc1", "Potency": "inconclusive: 3.98 µM [inhibitor, partial curve, poor fit]"}, {"smiles": "CN(CC(=O)Nc1ccc(Cl)cc1)S(=O)(=O)c1cccc2cccnc12", "activity, negative = inhibition": "inactive: -11.3%"}, {"smiles": "O=C(N/N=C/c1cn[nH]c1-c1ccc(Cl)cc1)c1ccc([N+](=O)[O-])cc1", "Potency": "inconclusive: 17.8 µM [inhibitor, partial curve]"}, {"smiles": "c1ccc(CN2CCC(N=C3NN=C(c4ccc5c(c4)OCCO5)CS3)CC2)cc1", "Potency": "inconclusive: 39.8 µM [inhibitor, single point]"}, {"smiles": "O=S(=O)(c1ccc2ccccc2c1)N1CCN=C1SCc1cccnc1", "activity, negative = inhibition": "inactive: -19.1%"}, {"smiles": "O=C(Oc1cccc(C(=S)N2CCOCC2)c1)c1cccc([N+](=O)[O-])c1", "Potency": "inconclusive: 22.4 µM [inhibitor, partial curve]"}, {"smiles": "COc1ccc(-c2nnc(C3CCN(S(=O)(=O)c4cccc(Cl)c4)CC3)o2)cc1", "Potency": "inconclusive: 39.8 µM [inhibitor, single point]"}, {"smiles": "Cc1cccc(OCC(=O)Nc2cccc(C(=O)NCC(C)C)c2)c1", "activity, negative = inhibition": "inactive: -7.94%"}, {"smiles": "CC1(CCl)N([O-])C2=C(CCCC2)[N+]1=O", "note": "(stereo not drawn)", "Potency": "inconclusive: 20 µM [inhibitor, partial curve]"}, {"smiles": "Cc1cc(C(=O)O/N=C(\\N)c2ccncc2)ccc1[N+](=O)[O-]", "Potency": "inconclusive: 2.51 µM [inhibitor, full curve]"}, {"smiles": "CC(C(=O)Nc1cc([N+](=O)[O-])ccc1Cl)N1CCN(c2ccc(O)cc2)CC1", "note": "(stereo not drawn)", "Potency": "inconclusive: 28.2 µM [inhibitor, partial curve]"}, {"smiles": "COc1cc(-c2nc(SCC(=O)Nc3ccc4c(c3)OCO4)c(-c3ccccc3)[nH]2)cc(OC)c1OC", "Potency": "inconclusive: 15.8 µM [inhibitor, partial curve, poor fit]"}, {"smiles": "Cc1cc(O)cc(O)c1C(=O)Cc1cnn(-c2ccccc2)c1", "Potency": "inconclusive: 22.4 µM [inhibitor, partial curve]"}, {"smiles": "Cc1cc(C(=O)N/N=C/c2sc(N3CCOCC3)nc2-c2ccccc2)c(C)o1", "Potency": "inconclusive: 28.2 µM [inhibitor, single point]"}, {"smiles": "CCCCOC(=S)NC(=O)c1sc2ccccc2c1Cl", "Potency": "inconclusive: 20 µM [inhibitor, single point]"}, {"smiles": "O=C(CN1C(=O)c2ccccc2Sc2ccc(C(=O)N3CCOCC3)cc21)Nc1ccc(Cl)cc1F", "activity, negative = inhibition": "inactive: 1.06%"}, {"smiles": "O=C(c1cc(COc2c(F)cccc2F)on1)N1CCC(c2ccccc2F)C1", "note": "(stereo not drawn)", "Potency": "inconclusive: 14.1 µM [inhibitor, partial curve]"}, {"smiles": "Cc1ccc(C)c(NC(=O)C2=CCN(S(=O)(=O)c3ccc(F)cc3)CC2)c1", "activity, negative = inhibition": "inactive: 0.533%"}, {"smiles": "O=C(COc1ccccc1[N+](=O)[O-])N/N=C/c1cccs1", "activity, negative = inhibition": "inactive: -10.9%"}, {"smiles": "Cc1cc(C)c2c(c1)c(C)cc1nnc(SCC(=O)c3ccccc3)n12", "activity, negative = inhibition": "inactive: -8.54%"}, {"smiles": "Cc1ccc(C)c(NC(=O)C(CC(C)C)N2Cc3ccccc3C2=O)c1", "note": "(stereo not drawn)", "activity, negative = inhibition": "inactive: -0.0005%"}, {"smiles": "CCOc1ccc(-c2nnc(-c3cccs3)o2)cc1", "Potency": "inconclusive: 8.91 µM [inhibitor, partial curve]"}, {"smiles": "COc1ccc(-c2c(C)c3ccc(O)c(CN4CCOCC4)c3oc2=O)cc1OC", "Potency": "inconclusive: 4.47 µM [inhibitor, single point]"}, {"smiles": "CC(C)c1ccc(NC(=O)C(c2ccccc2)N2CCN(C(=O)c3ccco3)CC2)cc1", "note": "(stereo not drawn)", "activity, negative = inhibition": "inactive: -20.1%"}, {"smiles": "CCOc1ccc(N(Cc2ccccc2F)C2=NC3CS(=O)(=O)CC3S2)cc1", "note": "(stereo not drawn)", "Potency": "inconclusive: 8.91 µM [inhibitor, partial curve]"}, {"smiles": "C/C(=N\\OCC(=O)Nc1ccc2c(c1)OCCO2)c1ccc2c(c1)OCCO2", "Potency": "inconclusive: 3.16 µM [inhibitor, partial curve, poor fit]"}, {"smiles": "c1ccc(CN2CCN(c3nc(-c4ccccc4)nc(-n4ccnc4)n3)CC2)cc1", "Potency": "inconclusive: 25.1 µM [inhibitor, partial curve]"}, {"smiles": "CCCCOC(=O)c1c(C)oc2c1cc(NS(=O)(=O)c1cc(OC)ccc1OC)c1ccccc12", "Potency": "inconclusive: 25.1 µM [inhibitor, single point]"}, {"smiles": "COc1ccc(NS(=O)(=O)c2ccc(N3CCCC3)c(NC(=S)Nc3cccc(S(=O)(=O)N(C)C)c3)c2)cc1", "Potency": "active: 25.1 µM"}, {"smiles": "Cc1ccc(N2CCN(S(=O)(=O)N3CCOCC3)CC2)cc1C", "Potency": "inconclusive: 35.5 µM [inhibitor, partial curve]"}, {"smiles": "CCOC(=O)c1cc[n+](CC(=O)c2ccc(F)cc2)cc1", "activity, negative = inhibition": "inactive: -5.1%"}, {"smiles": "COC(=O)C[C@](O)(CCCC(C)(C)O)C(=O)O[C@@H]1C(OC)=C[C@]23CCCN2CCc2cc4c(cc2[C@H]13)OCO4", "activity, negative = inhibition": "inactive: -4.89%"}, {"smiles": "O=C(c1ccc(Cl)cc1)n1nc(-c2cccnc2)nc1NCc1ccc(F)cc1", "Potency": "inconclusive: 15.8 µM [inhibitor, partial curve]"}, {"smiles": "COc1cccc(NCc2ccc([N+](=O)[O-])s2)c1", "Potency": "inconclusive: 12.6 µM [inhibitor, partial curve]"}, {"smiles": "O=C1N(c2ccccc2)C[C@@H]2C[C@@H](c3cccc4c3OCO4)N3CCC[C@@]123", "activity, negative = inhibition": "inactive: 0.2%"}, {"smiles": "CCCOc1ccc(C(=O)CCNc2cccc(Cl)c2)cc1", "Potency": "inconclusive: 3.55 µM [inhibitor, full curve]"}, {"smiles": "CCN1C(=O)c2cccc3c(S(=O)(=O)Nc4ncccc4C)ccc1c23", "activity, negative = inhibition": "inactive: -8.48%"}, {"smiles": "CCN1CCN(Cc2c(O)ccc3oc(C)c(C(=O)Nc4cccc(C(F)(F)F)c4)c23)CC1", "Potency": "inconclusive: 39.8 µM [inhibitor, single point]"}, {"smiles": "COc1cccc(NC(=O)c2c(C)oc3nc(C)nc(N4CCCC4)c23)c1", "activity, negative = inhibition": "inactive: -9.94%"}, {"smiles": "CCn1c(COc2ccccc2C)nnc1SCC(=O)OC", "activity, negative = inhibition": "inactive: 1.86%"}, {"smiles": "Cc1cc(C)c(C)c(C(=O)CSc2nnc(C)c(=O)[nH]2)c1C", "activity, negative = inhibition": "inactive: -10.6%"}, {"smiles": "CCc1nnc(NC(=O)CSc2nc3c([nH]c4ccccc43)c(=O)n2-c2ccc(Cl)cc2)s1", "activity, negative = inhibition": "inactive: 5.04%"}]}]}
